Source: PubChem BioAssay AID485281 (National Center for Advancing Translational Sciences (NCATS), 2010)
Screen size: about 350,000 compounds; about 260 (0.074%) were called active. This list was built around the results that the source calls inconclusive (neither active nor inactive); the mix of calls is not that of the screen. Calls follow the shape of the dose curve; as a rule, active = well fitted inhibition curve with a large enough effect; inconclusive = small, poorly fitted or top-dose-only effect; inactive = no such curve, though single readings can be large or run the other way. Where the call is inconclusive, the potency comes from a doubtful curve fit.

Molecular target: Ferritin light chain (Equus caballus) (UniProt P02791)
Chain of UniProt P02791 (P02791 whole entry, looked up): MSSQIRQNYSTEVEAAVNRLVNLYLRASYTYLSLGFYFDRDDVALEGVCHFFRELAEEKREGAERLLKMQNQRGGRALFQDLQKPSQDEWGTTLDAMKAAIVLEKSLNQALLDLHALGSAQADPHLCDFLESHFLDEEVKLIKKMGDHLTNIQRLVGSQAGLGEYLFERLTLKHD
Test: qHTS Assay for Identification of Novel General Anesthetics; also: nearly all actives have a fitted effect of over 20% in size
Conditions: apoferritin/1-aminoanthracene competitive binding, fluorescence; activity change, negative = displacement: at 77.5 µM (top of the series)
Method in brief: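 In PBS, apoferritin at 10 uM is loaded with 1-AMA from a 50% saturated solution. After 10 min of compound exposure at ambient temperature, reduced 535 nm fluorescence indicates probe displacement.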
% is scaled to controls: 0 for no effect and ±100 for the full control effect; potency is read from the fitted curve at half-maximal effect; tags tell the direction and shape of the fitted curve.

SMILES | Potency | activity change, negative = displacement
CCOC(=O)C(CCCCCOc1ccccc1[N+](=O)[O-])C(=O)OCC | inconclusive: 25.1 µM [inhibitor, partial curve] | –
O=C(CSc1ncnc2nc[nH]c12)c1ccccc1 | inconclusive: 25.1 µM [inhibitor, partial curve] | –
CCOC(=O)c1c(C)[nH]c(C)c1C(=O)CSc1nnc(-c2cc(OC)c(OC)c(OC)c2)o1 | – | inactive: -8.35%
COc1ccc(OC)c(NC(=O)c2cc(S(=O)(=O)NCc3ccco3)ccc2F)c1 | inconclusive: 15.8 µM [inhibitor, partial curve] | –
CC(=O)Nc1sc(N/N=C/c2ccc(O)cc2)nc1-c1ccc(C)cc1 | – | inactive: 3.64%
N/C(=N\OC(=O)Cc1ccccc1)c1ccccc1Cl | inconclusive: 12.6 µM [inhibitor, partial curve] | –
COc1ccccc1NC(=O)CN1CCN(CC(=O)Nc2ccc(OCc3ccccc3)cc2)CC1 | inconclusive: 14.1 µM [inhibitor, partial curve] | –
Cc1cccn2c(=O)c(/C=C(\C#N)C(=O)NCc3ccco3)c(N3CCCC(C)C3)nc12 (stereo unspecified) | inconclusive: 35.5 µM [inhibitor, partial curve] | –
CCCC[C@@H]1C[C@H]1C(NC(=O)c1ccco1)c1ccccc1C(F)(F)F (stereo partly specified) | inconclusive: 25.1 µM [inhibitor, partial curve] | –
Cc1cc([N+](=O)[O-])nn1CC(=O)NNC(=S)Nc1ccc([N+](=O)[O-])cc1 | inconclusive: 28.2 µM [inhibitor, single point] | –
CCc1ccc(NC(=O)C(Cc2ccccc2)NS(=O)(=O)c2ccc3c(c2)CCN3C(C)=O)cc1 (stereo unspecified) | inconclusive: 3.16 µM [inhibitor, full curve, poor fit] | –
COc1cc(CCC(=O)OCC(=O)NC2CCCC(C)C2C)cc(OC)c1OC (stereo unspecified) | inconclusive: 28.2 µM [inhibitor, partial curve] | –
CC1Oc2ccccc2N(Cc2ccccc2F)C1=O (stereo unspecified) | inconclusive: 28.2 µM [inhibitor, partial curve] | –
Cc1ccc2c(CSc3nnc(C4CC4)n3N)cc(=O)oc2c1C | inconclusive: 56.2 µM [inhibitor, single point] | –
COc1ccc(N(Cc2ccccc2)C(=O)c2ccccc2[N+](=O)[O-])cc1 | inconclusive: 31.6 µM [inhibitor, partial curve] | –
COc1cccc(NC(=O)NCCC2=CCCCC2)c1 | inconclusive: 31.6 µM [inhibitor, partial curve] | –
COc1ccc(N(C(=O)c2cnccn2)C(C(=O)NC2CCCCC2)c2ccccc2)cc1 (stereo unspecified) | – | inactive: -0.009%
Cc1cccc(/C=C2/SC(=O)N(Cc3ccccc3)C2=O)n1 | inconclusive: 5.01 µM [inhibitor, full curve] | –
Cc1ccc(S(=O)(=O)/C(C#N)=C/c2c(N3CC(C)OC(C)C3)nc3ccccn3c2=O)cc1 (stereo unspecified) | inconclusive: 12.6 µM [inhibitor, partial curve] | –
COc1cc([N+](=O)[O-])cc(/C=C2/SC(=S)N(Cc3ccccc3)C2=O)c1O | inconclusive: 11.2 µM [inhibitor, partial curve] | –
Cc1c(C(=O)N2CCc3ccccc32)oc2ccccc12 | inconclusive: 35.5 µM [inhibitor, partial curve] | –

SMILES | Potency | activity change, negative = displacement
COc1ccc2[nH]c3c(NCc4ccco4)ncnc3c2c1 | – | inactive: -12%
C=CC[C@@H]1C=C[C@H](O/N=C2\c3cc(OC)ccc3O[C@H](c3cccc(OC)c3)[C@H]2O)[C@H](CO)O1 | – | inactive: 5.6% [at 15.3 µM]
COC/C=C/C1=CC2=CC(=O)C(C)(OC(=O)c3cnc4ccccc4n3)C(=O)C2=CN1C(CO)CO (stereo unspecified) | – | inactive: -12.2%
Cc1cc(C(=O)COc2ccccc2[N+](=O)[O-])c(C)n1C1CC1 | inconclusive: 25.1 µM [inhibitor, partial curve] | –
COc1cccc(CNC(=O)C2CCCN(S(=O)(=O)c3cccc4nonc34)C2)c1 (stereo unspecified) | inconclusive: 14.1 µM [inhibitor, partial curve] | –
CC(=O)OCCSc1c(-c2ccccc2)c2cc(Cl)ccc2[nH]c1=O | inconclusive: 31.6 µM [inhibitor, single point] | –
C/C(=N\Nc1ncc(Cl)cc1Cl)c1ccc(OC(F)F)cc1 | – | inactive: 8.07%
Cc1ccc(NC(=O)c2sc3nc(CCl)[nH]c(=O)c3c2C)c(C)c1 | – | inactive: -23.2%
CC(C)c1ccc(NC(=O)c2cc(S(=O)(=O)N3CCCC3)c[nH]2)cc1 | inconclusive: 50.1 µM [inhibitor, single point] | –
Cc1cc2c(cc1NC(=O)c1ccc(C(C)(C)C)cc1)n(C)c(=O)c(=O)n2C | inconclusive: 56.2 µM [inhibitor, single point] | –
Oc1ccc(-c2csc(-c3ccccc3)n2)cc1O | inconclusive: 31.6 µM [inhibitor, partial curve] | –
CC1C=CCC2C(=O)N(c3ccc(Cl)cc3O)C(=O)C12 (stereo unspecified) | inconclusive: 14.1 µM [inhibitor, partial curve] | –
COc1ccc(C(=O)Nc2ccc(S(=O)(=O)N3CCCC3)cc2)cc1 | inconclusive: 25.1 µM [inhibitor, partial curve] | –
CCOC(=O)C(C)n1cnc2sc3c(c2c1=O)CCC3 (stereo unspecified) | inconclusive: 25.1 µM [inhibitor, partial curve] | –
O=C(COC(=O)C12CC3CC(CC(O)(C3)C1)C2)Nc1ccccc1OC(F)F | inconclusive: 11.2 µM [inhibitor, partial curve] | –
Cc1ccc(C)c(CSc2nnc(-c3cccnc3)o2)c1 | inconclusive: 31.6 µM [inhibitor, partial curve] | –
O=C(Cc1c[nH]c2ccccc12)N1CCc2ccccc21 | inconclusive: 44.7 µM [inhibitor, single point] | –
Cc1ccc(-n2ncc3c(=O)[nH]c(SCC(=O)N4CCCc5ccccc54)nc32)cc1 | – | inactive: 41.4%
Cc1ccc(C(=O)COC(=O)CNS(=O)(=O)c2ccc(C)cc2)cc1 | inconclusive: 35.5 µM [inhibitor, single point] | –
Cc1ccc(NC2CCCN(C(=O)c3cn4cc(Cl)ccc4n3)C2)cc1C (stereo unspecified) | inconclusive: 28.2 µM [inhibitor, partial curve] | –
